# The other results are listed elsewhere or left out. No stated cut-off is given here; in the data, active = 3.2 or more and inactive = the rest. The signal is at background level for most entries.
# B1: HBB_Y36_Q40E (peptide)
# chain: RLLVVYPWTER
# B2: HBB_Y36_Q40K (peptide)
# chain: RLLVVYPWTKR
# B3: HBB_Y36_R31S (peptide)
# chain: SLLVVYPWTQR
# B4: HBB_Y36_T39N (peptide)
# chain: RLLVVYPWNQR
# B5: HBB_Y36_V35F (peptide)
# chain: RLLVFYPWTQR
# B6: HBB_Y36_W38S (peptide)
# chain: RLLVVYPSTQR
# B7: HBB_Y36_Y36F (peptide)
# chain: RLLVVFPWTQR
# B8: HBD_Y131_V134A (peptide)
# chain: QMQAAYQKAVA
# B9: HBD_Y146_L142P (peptide)
# chain: APAHKYHGGGG
# B10: HBG2_Y36_V35I (peptide)
# chain: RLLVIYPWTQR
# B11: HCK_Y180 (peptide)
# chain: TTKGSYSLSVR
# B12: HCN4_Y531 (peptide)
# chain: QYQEKYKQVEQ
# B13: HCN4_Y531_V534M_YF (peptide)
# chain: QFQEKYKQMEQ
# B14: HCN4_Y531_YF (peptide)
# chain: QFQEKYKQVEQ
# B15: HCN4_Y554 (peptide)
# chain: QRIHDYYEHRY
# B16: HDX_Y197 (peptide)
# chain: HAKKNYGNSSV
# B17: HELZ2_Y1304_V1308L (peptide)
# chain: ILGLEYSLRLP
# B18: HEMGN_Y150_A154S (peptide)
# chain: ENFSEYQEISV
# B19: HEXA_Y421 (peptide)
# chain: LSAPWYLNRIS
# Target: SHP2 C-SH2 domain E139D
# Experiment: enrichment score (SH2-bound / input frequency) (ratio); bacterial display of known human phosphotyrosine sites (pTyr-Var adds point mutants) read by sequencing; higher = stronger binding; tyrosines were phosphorylated by kinases first
# Settings: peptide library: pTyr-Var
# 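Further: displayed peptides selected on beads carrying the immobilized SH2 domain, with library peptides lacking any tyrosine serving as negative controls.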
row,Binder,enrichment score
1,B1,active: 3.76
2,B2,inactive: 0.345
3,B3,inactive: 3.07
4,B4,inactive: 1.76
5,B5,active: 3.34
6,B6,active: 3.26
7,B7,inactive: 1.77
8,B8,inactive: 0.756
9,B9,inactive: 1.42
10,B10,inactive: 2.6
11,B11,inactive: 0.862
12,B12,inactive: 0.519
13,B13,inactive: 1.2
14,B14,inactive: 0.974
15,B15,inactive: 1.62
16,B16,inactive: 0.5
17,B17,inactive: 1.43
18,B18,inactive: 0.71
19,B19,inactive: 1.3

# Target: SHP2 C-SH2 domain wild-type
# Experiment: as above
# Settings: peptide library: pTyr-Var
row,Binder,enrichment score
1,B1,inactive: 3.19
2,B2,inactive: 0.553
3,B3,inactive: 2.6
4,B4,inactive: 2.07
5,B5,inactive: 2.76
6,B6,inactive: 2.65
7,B7,inactive: 1.5
8,B8,inactive: 0.677
9,B9,inactive: 0.961
10,B10,inactive: 2.29
11,B11,inactive: 0.649
12,B12,inactive: 0.74
13,B13,inactive: 0.803
14,B14,inactive: 0.86
15,B15,inactive: 1.42
16,B16,inactive: 0.645
17,B17,inactive: 1.7
18,B18,inactive: 0.693
19,B19,inactive: 1.25

# Target: SHP2 N-SH2 domain L43F
# Experiment: as above
# Settings: peptide library: pTyr-Var
row,Binder,enrichment score
1,B1,active: 3.63
2,B2,inactive: 0.353
3,B3,inactive: 2.57
4,B4,inactive: 1.52
5,B5,inactive: 2.92
6,B6,inactive: 2.88
7,B7,inactive: 1.2
8,B8,inactive: 0.739
9,B9,inactive: 1.16
10,B10,inactive: 1.79
11,B11,inactive: 0.798
12,B12,inactive: 0.543
13,B13,inactive: 0.869
14,B14,inactive: 0.737
15,B15,inactive: 1.56
16,B16,inactive: 0.781
17,B17,inactive: 1.83
18,B18,inactive: 0.865
19,B19,inactive: 1.56

# Target: SHP2 N-SH2 domain T42A
# Experiment: as above
# Settings: peptide library: pTyr-Var
row,Binder,enrichment score
1,B1,inactive: 2.78
2,B2,inactive: 0.257
3,B3,inactive: 2.66
4,B4,inactive: 1.41
5,B5,inactive: 2.3
6,B6,inactive: 2.6
7,B7,inactive: 1.43
8,B8,inactive: 0.637
9,B9,inactive: 1.09
10,B10,inactive: 1.83
11,B11,inactive: 0.741
12,B12,inactive: 0.391
13,B13,inactive: 0.81
14,B14,inactive: 0.646
15,B15,inactive: 1.37
16,B16,inactive: 0.426
17,B17,inactive: 1.6
18,B18,inactive: 0.817
19,B19,inactive: 1.31

# Target: SHP2 N-SH2 domain T52S
# Experiment: as above
# Settings: peptide library: pTyr-Var
row,Binder,enrichment score
1,B1,active: 3.54
2,B2,inactive: 0.481
3,B3,inactive: 2.68
4,B4,inactive: 1.76
5,B5,inactive: 3.06
6,B6,inactive: 2.78
7,B7,inactive: 1.6
8,B8,inactive: 0.797
9,B9,inactive: 1.15
10,B10,inactive: 2.62
11,B11,inactive: 0.796
12,B12,inactive: 0.606
13,B13,inactive: 0.736
14,B14,inactive: 1.05
15,B15,inactive: 1.68
16,B16,inactive: 0.706
17,B17,inactive: 1.62
18,B18,inactive: 0.711
19,B19,inactive: 1.64

# Target: SHP2 N-SH2 domain wild-type
# Experiment: as above
# Settings: peptide library: pTyr-Var
row,Binder,enrichment score
1,B1,inactive: 3.06
2,B2,inactive: 0.371
3,B3,inactive: 2.22
4,B4,inactive: 1.39
5,B5,inactive: 3.08
6,B6,inactive: 2.51
7,B7,inactive: 1.45
8,B8,inactive: 0.573
9,B9,inactive: 1.11
10,B10,inactive: 2.02
11,B11,inactive: 0.912
12,B12,inactive: 0.704
13,B13,inactive: 0.733
14,B14,inactive: 0.796
15,B15,inactive: 1.02
16,B16,inactive: 0.396
17,B17,inactive: 1.77
18,B18,inactive: 0.982
19,B19,inactive: 1.62
